The values that follow come from publication PMC9671898.

Results are given in words; binding and its absence hold for the method and conditions named. Binding seen in cells or lysates may run through a third protein. Some results given as binding are weak or reduced against the parent protein; the word gives no strength. Where a sequence is shown, tags or fusion partners need not be part of it.

The target in experiment [1] is T1, cCFP-U2AF65A (Arabidopsis thaliana) (UniProt O23212).
T1 sequence: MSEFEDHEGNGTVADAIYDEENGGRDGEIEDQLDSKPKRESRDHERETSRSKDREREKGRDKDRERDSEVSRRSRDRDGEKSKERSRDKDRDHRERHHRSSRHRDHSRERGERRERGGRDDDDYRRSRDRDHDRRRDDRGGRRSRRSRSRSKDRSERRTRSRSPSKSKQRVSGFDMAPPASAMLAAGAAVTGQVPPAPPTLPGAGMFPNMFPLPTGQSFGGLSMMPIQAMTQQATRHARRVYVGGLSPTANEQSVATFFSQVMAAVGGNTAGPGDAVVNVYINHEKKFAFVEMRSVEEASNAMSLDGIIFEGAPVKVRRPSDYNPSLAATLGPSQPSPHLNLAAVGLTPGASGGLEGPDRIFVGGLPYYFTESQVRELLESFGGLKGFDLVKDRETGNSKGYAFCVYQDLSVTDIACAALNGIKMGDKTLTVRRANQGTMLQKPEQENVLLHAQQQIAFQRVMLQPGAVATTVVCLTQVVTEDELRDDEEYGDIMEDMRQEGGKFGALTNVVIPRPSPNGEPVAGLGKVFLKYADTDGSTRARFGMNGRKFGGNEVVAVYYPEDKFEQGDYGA
The experiment can be described thus: split reporter; BiFC: fusions to CFP(155-238) and YFP(1-172) co-infiltrated into N. benthamiana leaves; plants left under long days, white light, 3 days.

The target of experiment [2] is T2, cCFP-U2AF65B (Arabidopsis thaliana) (UniProt Q8L716).
T2 sequence: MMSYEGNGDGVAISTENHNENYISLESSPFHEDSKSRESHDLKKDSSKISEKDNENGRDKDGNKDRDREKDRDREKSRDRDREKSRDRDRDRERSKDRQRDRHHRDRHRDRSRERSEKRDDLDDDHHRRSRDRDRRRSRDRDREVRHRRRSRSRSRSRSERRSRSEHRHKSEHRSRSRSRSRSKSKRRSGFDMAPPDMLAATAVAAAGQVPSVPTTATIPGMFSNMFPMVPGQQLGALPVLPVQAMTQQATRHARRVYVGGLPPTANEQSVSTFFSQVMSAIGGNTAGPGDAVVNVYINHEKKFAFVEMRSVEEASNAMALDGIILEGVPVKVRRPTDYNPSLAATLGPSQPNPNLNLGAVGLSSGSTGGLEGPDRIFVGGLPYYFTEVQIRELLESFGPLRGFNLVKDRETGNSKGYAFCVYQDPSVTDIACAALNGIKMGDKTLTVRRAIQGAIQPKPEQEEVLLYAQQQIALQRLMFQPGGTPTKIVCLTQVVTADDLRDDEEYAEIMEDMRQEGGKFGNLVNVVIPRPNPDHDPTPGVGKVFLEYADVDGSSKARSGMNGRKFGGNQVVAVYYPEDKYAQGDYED
The experiment is described as above.

B1: CIS1-nYFP (protein, UniProt Q94C11 1-443)
chain: MDKGAPPSIFVNDGSFMERFRQLQQEKDKDKDKVVQVEDSKPVKIISNPKPAANKISIGLKPNDAQKKGGKLAFSLKQKSKLLAPPVKLGTEEDEDDEDVKHEQGFGSVKRQKLEQRDTPVKSAKVSDVAPPPPSDPTVKKVADKLASFVAKHGRPFEHITRQKNPGDTPFKFLFDENCADYKYYVFRLAEEEKLISQTKDSGVLHSGDAGSRTSTAAIPLQKPAYQQTGYQIPASALYDTPVEPGASSRSAQASITRPSDSDSFSGPRGADPLSMMEFYMKKAAQEEKMRRPRQSKDEMPPPASLQGPSETSSTDPGKRGHHMGDYIPLEELDKFLSKCNDAAAQKATKEAAEKAKIQADNVGHKLLSKMGWKEGEGIGSSRKGMADPIMAGDVKTNNLGVGASAPGEVKPEDDIYEQYKKRMMLGYKHRPNPLGNPRKAYY
B1: the values for the binding result in experiment [1] and in experiment [2] were “binds” and “no binding”, respectively.
